Measured values as given in PubChem BioAssay AID1347165 (National Center for Advancing Translational Sciences (NCATS), 2019).
“And” between values parts separate entries of the source, which are not always exact repeats. Equal entries are not always repeated. The campaign covered roughly 220,000 compounds. About 5,700 (2.6%) were called active. Inconclusive means that the source gave no clear call. Such entries were picked first, then a sample of the others. The call rests on the fitted dose curve; in most records, active means well fitted inhibition curve with a large enough effect; inconclusive means small, poorly fitted or top-dose-only effect; inactive means no such curve, though single readings can be large or run the other way. Potencies beside an inconclusive call are fits to weak or partial responses and may not hold up.

molecular target: Lysine-specific demethylase 5B (Homo sapiens) (UniProt Q9UGL1); test: Primary screen for KDM5B Histone Demethylases FDH-coupled qHTS; details: FDH-coupled NADH fluorescence (FDH is formaldehyde dehydrogenase); activity change, negative = inhibition: at 57.7 µM (top of the series) unless noted; further: nearly all actives have a fitted effect of over 70% in size; on activity change, negative = inhibition: 0% is about no effect
Chain of UniProt Q9UGL1 (Q9UGL1 whole entry, looked up): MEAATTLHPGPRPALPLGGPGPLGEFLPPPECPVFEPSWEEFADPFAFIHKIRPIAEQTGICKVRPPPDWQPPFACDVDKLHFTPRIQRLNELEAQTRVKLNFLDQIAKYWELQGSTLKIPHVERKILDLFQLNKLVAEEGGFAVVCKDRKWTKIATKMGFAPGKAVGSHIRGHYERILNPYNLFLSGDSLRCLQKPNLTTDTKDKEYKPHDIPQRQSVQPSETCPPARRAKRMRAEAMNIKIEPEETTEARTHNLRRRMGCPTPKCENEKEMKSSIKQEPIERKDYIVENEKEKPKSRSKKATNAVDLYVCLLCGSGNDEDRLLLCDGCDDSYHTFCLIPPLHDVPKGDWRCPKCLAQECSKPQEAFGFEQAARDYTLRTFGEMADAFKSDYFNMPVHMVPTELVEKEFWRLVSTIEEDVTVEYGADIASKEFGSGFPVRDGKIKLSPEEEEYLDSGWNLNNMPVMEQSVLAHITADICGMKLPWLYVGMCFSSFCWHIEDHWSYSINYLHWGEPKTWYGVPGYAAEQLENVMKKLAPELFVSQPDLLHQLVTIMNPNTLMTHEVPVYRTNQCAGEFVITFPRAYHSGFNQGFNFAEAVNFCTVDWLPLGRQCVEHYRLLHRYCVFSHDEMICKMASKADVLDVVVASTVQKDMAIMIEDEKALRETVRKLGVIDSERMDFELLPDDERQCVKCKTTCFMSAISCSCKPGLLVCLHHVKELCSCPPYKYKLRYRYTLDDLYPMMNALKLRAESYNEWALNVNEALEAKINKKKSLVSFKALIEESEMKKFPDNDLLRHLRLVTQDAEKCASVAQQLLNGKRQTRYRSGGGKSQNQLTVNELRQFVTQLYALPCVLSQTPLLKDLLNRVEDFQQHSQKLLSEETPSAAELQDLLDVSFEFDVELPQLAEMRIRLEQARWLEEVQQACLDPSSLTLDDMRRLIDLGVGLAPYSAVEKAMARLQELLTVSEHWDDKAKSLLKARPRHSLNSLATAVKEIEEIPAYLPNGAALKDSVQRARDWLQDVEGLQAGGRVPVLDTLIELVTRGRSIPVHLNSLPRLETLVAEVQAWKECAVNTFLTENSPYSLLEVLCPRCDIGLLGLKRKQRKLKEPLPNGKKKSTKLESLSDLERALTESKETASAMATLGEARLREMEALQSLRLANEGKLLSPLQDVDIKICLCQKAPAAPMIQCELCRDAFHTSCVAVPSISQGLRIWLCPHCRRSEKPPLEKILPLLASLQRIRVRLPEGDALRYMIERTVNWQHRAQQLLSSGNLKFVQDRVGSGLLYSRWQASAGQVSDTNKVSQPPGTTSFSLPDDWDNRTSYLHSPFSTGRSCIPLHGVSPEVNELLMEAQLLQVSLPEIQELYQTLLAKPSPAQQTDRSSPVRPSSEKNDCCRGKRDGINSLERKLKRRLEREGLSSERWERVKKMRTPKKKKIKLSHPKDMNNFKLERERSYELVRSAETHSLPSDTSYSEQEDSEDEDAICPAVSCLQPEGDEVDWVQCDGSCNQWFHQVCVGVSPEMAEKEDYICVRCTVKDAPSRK
Procedure, shortened: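 Coupled FDH/NAD⁺ fluorescence readout. KDM5BΔAP 200 nM final; compound titration, 10 min RT preincubation; substrate mix 12.5 µM H3K4me3, 25 µM 2-OG, 50 µM Fe(II), 100 µM ascorbate, 0.25 mM NAD⁺, 0.25 U/mL FDH; ΔRFU over 30 min.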
Potency means the concentration at half of the fitted maximal effect; tags describe the fitted curve by direction and shape.

Q: For `CCn1c(CN(C)C)nnc1C1CCN(C(=O)Cn2nc(C)cc2N)CC1`, which Potency is on record?
A: inconclusive: 15.8 µM [inhibitor, partial curve, poor fit]

Q: How did the Potency turn out when `COc1ccc(CN2Cc3[nH]cnc3C[C@H]2C(=O)NCc2ccc(Cl)cc2)c2ccccc12` was run?
A: inconclusive: 12.6 µM [inhibitor, partial curve, poor fit]

Q: `Cc1cccc(Nc2nc(C)c(C(=O)Nc3ccccc3)s2)c1` was tested. Which Potency did it give?
A: inconclusive: 31.6 µM [inhibitor, single point]

Q: For `NCC1CCCN(Cc2ccc(-c3nc(-c4ccncc4)cc(=O)[nH]3)cc2)C1` (stereo not given), which “activity change, negative = inhibition” value is on record?
A: inactive: 6.2%

Q: How did the Potency turn out when `CN1CCC2(C1)CN(Cc1ccccc1)c1ccc(C(=O)NC3CCCCC3)cc12` (stereo not given) was run?
A: inconclusive: 35.5 µM [inhibitor, partial curve, poor fit]

Q: With `Cc1ccc(NC(=O)N2CC3CCCN3c3ccccc32)cc1Cl` (stereo not given) as the compound, how does the Potency read?
A: inconclusive: 20 µM [inhibitor, partial curve, poor fit]

Q: Which Potency does the source give for `O=C(NCC(F)(F)F)c1ccc2c(c1)C1(CCN(CC3CC3)C1)CN2Cc1ccccc1` (stereo not given) here?
A: active: 20 µM

Q: `Cc1nc(NC(=O)c2csc3ccccc23)sc1C` was tested. Which Potency did it give?
A: inconclusive: 39.8 µM [inhibitor, single point]

Q: Which Potency does the source give for `Cn1c(Cn2cccn2)nnc1C1CCCN(c2nccc(N)n2)C1` (stereo not given) here?
A: inconclusive: 12.6 µM [inhibitor, single point]

Q: How did the Potency turn out when `COc1ccc(-c2ccnc3nc(Cc4ccc(F)cc4)nn23)c(F)c1` was run?
A: active: 25.1 µM

Q: With `CCN1CCN(c2nnc(-n3cccc3C(=O)NCc3ccccc3OC)s2)CC1` as the compound, how does the Potency read?
A: inconclusive: 35.5 µM [inhibitor, single point]

Q: For `Cc1sc2ncn(CCC(=O)NC3CCN(Cc4ccccc4)CC3)c(=O)c2c1C`, which “activity change, negative = inhibition” value is on record?
A: inactive: -11.4%

Q: For `O=C(CN1CCOCC1)N/N=C/c1ccc(-c2ccc(C(=O)O)cc2)o1`, which Potency is on record?
A: inconclusive: 35.5 µM [inhibitor, partial curve, poor fit]

Q: For `CC(C)CCN(CCC(=O)NCCc1ccccc1)C(=O)c1ccoc1`, which Potency is on record?
A: inconclusive: 4.47 µM [inhibitor, partial curve, poor fit]

Q: `CC(/C=N/NC(=O)C1CC1)c1ccccc1` (stereo not given) was tested. Which “activity change, negative = inhibition” value did it give?
A: inactive: 9.77%

Q: For `O=C(NCCc1cccnc1)c1ccc(Cl)cc1Cl`, which “activity change, negative = inhibition” value is on record?
A: inactive: 23%

Q: `O=C(NC1CCc2nn(CC3CC3)c(=O)n2CC1)c1cc2ccccc2[nH]1` (stereo not given) was tested. Which Potency did it give?
A: inconclusive: 31.6 µM [inhibitor, partial curve, poor fit]

Q: `Cc1cccc(NC(=O)Cn2c(N3CCc4ccccc4C3)nc(C)cc2=O)c1` was tested. Which Potency did it give?
A: inconclusive: 12.6 µM [inhibitor, partial curve]

Q: `COc1cc(Nc2ncc3c(n2)CCN(Cc2ccc(OC(C)C)c(OC)c2)C3)cc(OC)c1` was tested. Which Potency did it give?
A: inconclusive: 1 µM [inhibitor, full curve, poor fit]

Q: Which Potency does the source give for `Cc1ccc(S(=O)(=O)N2CCCC2)cc1C(=O)Nc1ccc(-c2nc3ccccc3[nH]2)cc1` here?
A: inconclusive: 25.1 µM [inhibitor, single point]

Q: Which Potency does the source give for `COc1ccc(CCNC(=O)c2c(O)nc3ccccn3c2=O)cc1OC` here?
A: inconclusive: 39.8 µM [inhibitor, single point]

Q: `COc1ccc(-c2ccc3c(c2)C(=O)N2CC[C@H](NC(=O)NC4CCCCC4)[C@H]2C(=O)N3)cc1` was tested. Which Potency did it give?
A: inconclusive: 17.8 µM [inhibitor, single point]

Q: With `N#CC(C(=O)NCc1ccccc1)C(=O)c1cccc(C(F)(F)F)c1` (stereo not given) as the compound, how does the “activity change, negative = inhibition” value read?
A: inactive: 16%

Q: Which Potency does the source give for `CCOc1ccc(NC(=O)c2oc3ccccc3c2NC(=O)C(C)(C)C)cc1` here?
A: inconclusive: 25.1 µM [inhibitor, partial curve, poor fit]

Q: How did the “activity change, negative = inhibition” value turn out when `Cc1cccc(C(=O)Nc2cccc(-c3cn4ccccc4n3)c2)c1` was run?
A: inactive: -21.9%

Q: With `COc1ccc2[nH]c(C(=O)N3CCc4ccccc4C3)cc2c1` as the compound, how does the Potency read?
A: inconclusive: 25.1 µM [inhibitor, partial curve, poor fit]

Q: With `CC(C)C[C@@H]1N[C@H](C(=O)N2CCOCC2)Cc2c[nH]c3cccc1c23` as the compound, how does the Potency read?
A: inconclusive: 28.2 µM [inhibitor, partial curve]

Q: For `CC(C)CNC(=O)Nc1cc(C(=O)NCc2ccc(C(C)C)cc2)ccc1N1CCCC1`, which Potency is on record?
A: inconclusive: 25.1 µM [inhibitor, single point]

Q: For `CCOc1ccc(NC(=O)c2cc3cc(C)ccc3n2C)cc1`, which Potency is on record?
A: inconclusive: 44.7 µM [inhibitor, single point] and inconclusive: 2.82 µM [inhibitor, full curve, poor fit]

Q: With `Cn1c(CNC(=O)c2cc3c(s2)CN(C2CC2)C3)nc2ccccc21` as the compound, how does the Potency read?
A: active: 12.6 µM

Q: With `CN1CC(=O)N(C2CCNCC2)Cc2c(NCCCO)ncnc21` as the compound, how does the Potency read?
A: inconclusive: 50.1 µM [inhibitor, partial curve]

Q: For `O=C(NCc1ccc2c(c1)OCO2)c1cnc2c(c1)N(C(=O)CCc1ccccc1)CCC2`, which Potency is on record?
A: inconclusive: 28.2 µM [inhibitor, single point]

Q: How did the “activity change, negative = inhibition” value turn out when `Cc1[nH]c2nc3ccccc3n2c(=O)c1Cc1ccc(Br)cc1` was run?
A: inactive: 16.8%

Q: Which Potency does the source give for `CN(C)C(=O)c1nc(-c2cc(Cl)cc(Cl)c2)c2ccccn12` here?
A: inconclusive: 39.8 µM [inhibitor, partial curve, poor fit]

Q: `CCOCC(=O)N1CCC2(CC1)CN(C1CCC1)CC2COC` (stereo not given) was tested. Which Potency did it give?
A: inconclusive: 20 µM [inhibitor, partial curve, poor fit]

Q: With `CC(CCn1cccn1)NC(=O)c1csc2nc(-c3ccc(C(F)(F)F)cc3)cn12` (stereo not given) as the compound, how does the Potency read?
A: inconclusive: 15.8 µM [inhibitor, partial curve, poor fit]

Q: Which Potency does the source give for `c1ccc2cc(OCCOCCOc3ccc4ccccc4c3)ccc2c1` here?
A: inconclusive: 35.5 µM [inhibitor, partial curve, poor fit]

Q: For `CC1CCN(c2nc(-c3ccc(C(C)(C)C)cc3)nc3ccccc23)CC1`, which Potency is on record?
A: inconclusive: 31.6 µM [inhibitor, partial curve, poor fit]

Q: With `CCn1cc(-c2ccc(OC)cc2)cc1C(=O)NCC(=O)OC` as the compound, how does the Potency read?
A: inconclusive: 35.5 µM [inhibitor, single point]

Q: `COc1ccc(-c2noc(-c3cccn3CC(=O)N3CCC(C)CC3)n2)cc1F` was tested. Which Potency did it give?
A: inconclusive: 39.8 µM [inhibitor, single point]
